Laboratory results as given in PubChem BioAssay AID493208 (National Center for Advancing Translational Sciences (NCATS), 2011).
Screen size: about 44,000 compounds; about 340 (0.77%) were called active. Roughly 5% stayed inconclusive and do not appear here. Calls follow the shape of the dose curve; as a rule, active = well fitted inhibition curve with a large enough effect; inconclusive = small, poorly fitted or top-dose-only effect; inactive = flat fitted curve, though single readings scatter. The list shows a part of the results.

Assay: Acumen qHTS Assay for Inhibitors of the mTORC1 Signaling Pathway in MEF (Tsc2-/-, p53-/-) Cells: Sytravon;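 also: plate controls were DMSO for no effect and rapamycin for full effect; nearly all actives have a fitted effect of over 50% in size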
Conditions: phospho-rpS6 immunofluorescence/PI, 24 h; series mostly up to 38.3 µM; activity change, negative = inhibition: at the top concentration
Procedure, shortened: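 Immunofluorescence of rpS6 phosphorylation in Tsc2-/-, p53-/- MEFs after 24 h compound exposure, normalized to propidium iodide signal. Activity is expressed as % positive cells, thresholded with 7.5 nM rapamycin.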

Activity change, negative = inhibition, inactive:
COc1ccc(-c2noc(CSc3nc4ccccc4[nH]3)n2)cc1OC 8.93%
CCN1C(=O)C(O)(c2c[nH]c3ccccc23)c2cc(Br)ccc21 (stereo unspecified) 7.47%
Fc1cccc(CSc2ccc(-c3cccs3)nn2)c1 -17.8%
Cc1cccc(Cn2c(=O)n(-c3ccccc3C)c(=O)c3c2c2cc(C)ccc2n3C)c1 -0.376%
CCC(=O)N1c2ccccc2CC1C(=O)NCc1cc(Br)ccc1OC (stereo unspecified) 4.03%
Cc1ccc2oc3c(c(=O)c2c1)C(c1ccc(O)cc1)N(c1nc(C)c(C)s1)C3=O (stereo unspecified) 11.3%
CCC(=O)Nc1nnc(S(=O)(=O)N2c3ccccc3CC2C)s1 (stereo unspecified) 5.38%
Cc1csc2nc(COC(=O)c3ccc(NC(=O)C(C)Oc4ccccc4)cc3)cc(=O)n12 (stereo unspecified) -6.25%
Cc1ccc(CNc2nc3ccccc3n3cnnc23)cc1 -6.43%
COc1ccc(NC(=O)c2cnc(N3CCCC3)nc2)cc1OC 0%
CCCC1=Nc2cc(C(=O)N3CCC(C(=O)OCC)CC3)ccc2Sc2ccccc21 0.0059%
Cc1cccc(NC(=O)C2CCCN2S(=O)(=O)c2ccc3c(c2)n(C)c(=O)c(=O)n3C)c1 (stereo unspecified) -10.4%
Cc1cc(C)c2oc(-c3cccc(NC(=O)c4ccc(-c5cccc([N+](=O)[O-])c5)o4)c3)nc2c1 -9.6%
O=C(CCSCc1cccc(Cl)c1)NCCc1ccc(Cl)cc1 5.95%
O=C(c1ccccc1)N1CCc2cc(CNS(=O)(=O)c3ccc(Cl)s3)ccc21 11.8%
COc1ccc(-n2c(SCC(=O)NCc3ccc(F)cc3)nc3c([nH]c4ccccc43)c2=O)cc1 -0.289%
Cc1oc(-c2ccc(Cl)cc2)nc1Cn1c(=O)cc(C)c2c(C)nn(-c3ccccc3)c21 0.398%
COc1ccccc1CNC(=O)CCCCn1c(=O)c2ccccc2n(Cc2ccccc2F)c1=O 0.459%
CC(=O)Nc1cccc(NC(=O)Cn2cnc3c(oc4ccccc43)c2=O)c1 0.0552%
Cn1c(=O)n(C)c2cc(N3CCOCC3)c(NS(=O)(=O)c3cccc(C#N)c3)cc21 -1.79%
Cc1ccc(-c2nc3c4c(-c5ccccc5)c(-c5ccccc5)oc4ncn3n2)cc1 9.33%
Cc1ccc(CCNC(=O)C2CCN(S(=O)(=O)c3ccc4c(ccn4C)c3)CC2)cc1 1.59%
CCOc1ccc(NC(=O)c2c(C)oc3nc(C)nc(N4CCOCC4)c23)cc1 -1.7%
Cc1ccc(CNC(=O)CSc2nc3ccccc3nc2Cc2ccc(C)cc2)cc1 0.656%
COc1ccc(NC(=O)CSc2nc(C)cc(C)c2C(=O)Nc2ccccc2OC)cc1 -5.27%
COc1ccc(S(=O)(=O)NCC(c2ccco2)S(=O)(=O)c2cccs2)cc1F (stereo unspecified) -4.91%
Cc1cccc(-c2nc(SCc3cc(=O)c4c(C)cc(C)cc4[nH]3)n[nH]2)c1 1.2%
COCCN(CCOC)S(=O)(=O)c1ccc(C(=O)Nc2sc3c(c2C(N)=O)CCCC3)cc1 -3.84%
O=C(Cn1ncc2c3ccccc3n(Cc3ccccc3)c2c1=O)NCCc1ccc(Cl)cc1 3.1%
COc1ccc(S(=O)(=O)N2CCC(c3nc4ccccc4s3)CC2)cc1OC -3.03%
COc1cccc(NC(=O)Cn2nc(N3CCN(c4ccccc4)CC3)ccc2=O)c1 4.12%
Cc1ccc(Cl)cc1-n1ncc2c(NCCc3ccccc3)ncnc21 6.36%
Cc1cccc(CSc2cn(CC(=O)N3CCOCC3)c3ccccc23)c1 -0.365%
CCC(=O)N1CCc2cc(S(=O)(=O)NC(Cc3ccccc3)C(=O)NCc3ccccc3)ccc21 (stereo unspecified) -15.9%
Cc1ccc(OCC(=O)Nc2ccc(OCc3cc(=O)n4ccsc4n3)cc2)cc1C 0.448%
CCCCNc1nc2c(S(=O)(=O)c3ccc(Br)cc3)nnn2c2ccsc12 -7.87%
Cc1ccc(NC(=O)Cn2c(=O)n(Cc3nc(-c4ccccc4)no3)c(=O)c3ccccc32)c(C)c1 0.289%
CCC(=O)N1CCc2cc(Br)cc(S(=O)(=O)N3CCCC(C(=O)Nc4ccc(C)c(F)c4)C3)c21 (stereo unspecified) 0.683%
Cc1ccc(Nc2c(-c3ccccn3)nc3ccc(Br)cn23)cc1 0.996%
Cc1nn(C(C)C(=O)NCc2ccc(OC(C)C)cc2)c(=O)c2c1sc1ccccc12 (stereo unspecified) -0.389%
Cc1ccc(C(=O)N(Cc2ccc(N(C)C)cc2)CC2CCCO2)cc1 (stereo unspecified) -4.25%
COc1ccccc1NC(=O)c1c(-c2ccc(C)cc2)nnc2ccccc12 7.55%
Cc1ccc2ccc3cc(C(=O)N4CCN(c5ccccc5F)CC4)nc3c2[nH]1 5.01%
CC(CCc1ccccc1)NC(=O)CSc1n[nH]c(-c2ccccc2)n1 (stereo unspecified) 4.66%
COc1ccc(N2CCN(C(=O)Nc3cn(CC(C)C)c(=O)c4ccccc34)CC2)cc1 -29%
O=C(Nc1cc(Cl)ccc1Cl)c1ccc2c(c1)N(Cc1cccc(Cl)c1)C(=O)c1ccccc1S2=O (stereo unspecified) 0.679%
Cc1c(Cl)cccc1NC(=O)c1cc(-c2ccc3c(c2)OCO3)on1 7.21%
COc1c(Cl)cc(C(=O)Nc2cc(-c3nc4ccccc4[nH]3)ccc2C)cc1Cl -5.69%
Cc1ccc2oc(C(=O)Nc3c(C(=O)Nc4cccc(Cl)c4)oc4ccccc34)cc(=O)c2c1 3.55%
Cc1ccccc1Cn1ccn(-c2ccc(F)c(F)c2)c(=O)c1=O 3.76%
CCOC(=O)CSc1nc2ccccc2c(=O)n1-c1ccc(C(=O)NCCOC)cc1 1.64%
O=C(Nc1ccccc1C(F)(F)F)N1CCOc2ccc(Cl)cc21 5.66%
Cc1ccc(N2C(=O)CS(=O)(=O)C23C(=O)Nc2ccccc23)cc1C (stereo unspecified) 0.387%
CCOC(=O)N1CCC(NC(=O)c2ccc3c(c2)N(Cc2ccccc2C)C(=O)c2ccccc2S3=O)CC1 (stereo unspecified) 0.28%
CCOc1ccccc1-c1noc(CSc2nnc(-c3ccccc3)n2-c2ccc(OC)cc2)n1 4.75%
COc1ccc(N2CCN(CCCNC(=O)c3c(C)nn(-c4ccc(F)cc4)c3-n3cccc3)CC2)cc1 -11.9%
COc1ccc(S(=O)(=O)N(CC(=O)NC(C)c2ccccc2)c2ccc(C)cc2)cc1OC (stereo unspecified) 12.5%
CCc1ccc(NC(=O)Cn2nnc(-c3ccccc3N)n2)cc1 -13%
COc1ccccc1N1CCN(C(=O)c2cc3c(=O)n(Cc4cccs4)ccc3nc2C)CC1 -6.8%
CCOC(=O)N1CCc2c(sc3c2c(=O)n(-c2ccc(CC)cc2)c(=O)n3Cc2ccc(F)cc2Cl)C1 -0.789%
CCOc1ccc2nc(N3CCCC(C(=O)NCCc4ccc(Cl)cc4)C3)sc2c1 (stereo unspecified) 0.0845%
